Reference: the supplement of paper PMC10126150
Values marked as one replicate rest on one cluster of the flow cell; about a third of the high ones do not repeat.

Test system: ATP
Test: switch fluorescence ratio, 500 uM ATP over buffer (Cy3 cluster intensity, sum of 5 cycles each) (fold (ratio)); higher = stronger signal-on switching upon ATP binding; sequences stand for … in TCGTCGGCAGCGTCAGATGTGTATAAGAGACAGTTTTTTTTTTTTTTTTTTTTTTTTT…TC
Conditions: aptamer strand: ATP DNA aptamer (quencher-CACCTGGGGGAGTATTGCGGAGGAAGG + anchor), 100 nM annealed; ATP concentration: 500 uM; one replicate
Outline: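 Clusters with intensities outside 100-1000 RFU were excluded. The remaining Cy3-labelled switching-strand clusters on a modified Illumina MiSeq flow-cell had been annealed to 100 nM quencher-labelled ATP aptamer and imaged in selection buffer, then after 15 min with 500 uM ATP at 22 °C, for five cycles separated by NaOH stripping and re-annealing. The fluorescence ratio, averaged per switch-domain sequence, is each cluster's summed target-cycle Cy3 intensity over its summed buffer-cycle Cy3 intensity.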
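Note: ATP exposure 15 min at 22 °C before imaging.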

| Sequence | switch fluorescence ratio |
| --- | --- |
| TGTGTGGGAT | 0.994 |
| TCAAGCCTTA | 0.956 |
| CTGCGGTCAG | 1 |
| AAAGGTGAGC | 1.02 |
| ACTTCTGCCT | 1.04 |
| CTTGGGAGTC | 0.991 |
| GGGCTGGGCA | 1.05 |
| GCATTATCTC | 1.6 |
| TACTAGGATG | 0.995 |
| GAAGTATGA | 1.01 |
| GAACAACCAG | 1.04 |
| ACATTATATA | 1.07 |
| TGACGATAGT | 1.03 |
| CTCTCTAGC | 1.15 |
| TTACGCCGA | 1.02 |
| GATAGAATT | 1 |
| CTCGGGGATA | 1.04 |
| GTCTGCAGTG | 0.983 |
| GTCGATACCG | 0.978 |
| CGATGGATG | 1.17 |
| CAGTAATGGC | 1.06 |
| AGATTTTCTC | 1.07 |
| TTTGGGAGT | 1.03 |

| Sequence | switch fluorescence ratio |
| --- | --- |
| TGTTTCTAC | 0.97 |
| ATTTGCGCTC | 0.975 |
| TTTGAAACAG | 0.99 |
| AGTTTGAGAG | 1.02 |
| TTCAGGTAGC | 1.04 |
| GCGAAACCTT | 1.35 |
| GCTCTTCC | 1.8 |
| AATCGGGCCC | 0.983 |
| CTTCAGCCGA | 1.12 |
| CCTCAAGAGT | 2.51 |
| CTAGTAGTCC | 1.01 |
| CGTCTCATTT | 0.949 |
| TTCCCATTGT | 1.27 |
| CAGGAAGTGC | 1.06 |
| CGGTGGATAC | 1.29 |
| CTTATATGCT | 0.99 |
| ATAAAGCGAA | 1.02 |
| CGCGAGTTG | 1.04 |
| GAGAGATGTG | 0.985 |
| CTGTTAGTGT | 1.02 |
| TCATAGAGCT | 0.956 |
| CTGACGGAGG | 1.04 |
| CCGGCCAGC | 1.4 |

| Sequence | switch fluorescence ratio |
| --- | --- |
| TACTAAGCAG | 1.07 |
| CATAGGCCCG | 0.931 |
| GACTTCCGTT | 1.15 |
| AGGCAGTGAA | 1.02 |
| CCATTTCAAC | 1.04 |
| AGGATTTTGC | 0.915 |
| TATTGACTGG | 0.937 |
| CCTCTCCCCG | 1.23 |
| GATTTACAAA | 1.05 |
| CGGATTTCGG | 1 |
| AGAGGGTCAG | 0.983 |
| TTGACAACTA | 1.18 |
| CGAAAGGGAT | 3.66 |
| CCTACAAACA | 1.26 |
| TCCTCCTTTT | 1 |
| TAACGGCCTT | 1.06 |
| CACATAGATT | 0.956 |
| CCTACGGAGC | 5 |
| AAAGGGTGT | 1.09 |
| ATCTACGTCA | 1.14 |
| ACCGTGAGTG | 1.06 |
| AATGAGATG | 0.999 |
| GAATTGACAT | 1.03 |

| Sequence | switch fluorescence ratio |
| --- | --- |
| AGGTCTGCAT | 1.05 |
| TACATTGGGT | 0.979 |
| TACGGTGGTT | 0.983 |
| CAATCCCTA | 1.04 |
| TACCAACGT | 1.4 |
| CGGCTGGAGA | 0.991 |
| CTCGTGTTAT | 1.01 |
| CCTTCGGGTT | 2.33 |
| CATCTACGCC | 1.26 |
| GACCATATGC | 1.37 |
| TCCAGCCTTC | 1.17 |
| CTATGCTAGC | 1.17 |
| GCCCCCACAA | 1.18 |
| TTGCCACCGT | 0.974 |
| TAAAGATTGT | 1.24 |
| AGATGCATTT | 0.953 |
| GCAATTTTGA | 1.06 |
| CTTGTCTTA | 0.965 |
| GCTCCTTGGG | 1 |
| CTATTTGCAG | 1.08 |
| GTCGGGATCA | 1.02 |
| AATGTGACCG | 1.03 |
| TGAGCACCTA | 1.07 |

| Sequence | switch fluorescence ratio |
| --- | --- |
| TATCTTTCA | 1.02 |
| GCCGCCACTA | 1.05 |
| TAAGGATTCG | 1 |
| TTTACGTCCT | 1.68 |
| ATACACAGAC | 1.27 |
| AGTTCTGTTA | 1.01 |
| GTGTTTAAAC | 0.923 |
| AACCGCCTGA | 1.27 |
| CCGGGCCCAG | 1.28 |
| CAAGTTTCG | 0.958 |
| TCTTATGGCT | 1.02 |
| CCTCATTCAC | 1.76 |
| TTTGAACATC | 0.998 |
| ATTCTTCTGC | 0.967 |
| CGTGCGTACT | 1.03 |
| TGTTTGTAGT | 1.01 |
| GGTCAAATTA | 1.05 |
| CACGTTTTCC | 1.17 |
| AAAGAATTGC | 1.03 |
| CACGTACCAG | 1.65 |
| GAGTGAAAG | 1.04 |
| ACTGAGGAGC | 1.02 |
| CCAGCCCCGC | 1.1 |

| Sequence | switch fluorescence ratio |
| --- | --- |
| CCACAATGTG | 1.07 |
| TGGCCGAGCA | 1.05 |
| ATTTATGGC | 1.04 |
| CAGTAGGGCC | 1.05 |
| TTGTAGTAGG | 1.03 |
| TACGAGACCA | 1.04 |
| CAGACTTGCC | 1.07 |
| GGCATAGACA | 1 |
| TCCCACTGGA | 1.12 |
| AGCCCGGATG | 1.01 |
| CACGAAGCCA | 1.32 |
| CTATCGTGGG | 1.06 |
| GACAATTAGG | 1.01 |
| TCGTATGAGG | 0.99 |
| GTTGACGTTA | 0.994 |
| GCGCGAGGAT | 1.08 |
| TGGACTACGA | 1.05 |
| AACGGGATTT | 0.971 |
| AACTACGAGG | 1.04 |
| TGTTTCGTAG | 0.983 |
| AAAAGCTATC | 0.937 |
| GAACATTCTT | 1.01 |
| GGGATTATGC | 0.933 |

| Sequence | switch fluorescence ratio |
| --- | --- |
| CTTTCTGATT | 0.944 |
| GGAAGGCATG | 1.04 |
| GGGAGGCAGC | 0.985 |
| ATTATTGCAA | 0.98 |
| TTTTAGACTC | 1.05 |
| TTTCGACCGG | 1.01 |
| CCATTACATC | 1 |
| ATAAATCCCG | 0.999 |
| AGTATAGA | 0.961 |
| TATAAGCTGC | 1.04 |
| GTGTTGGGAC | 0.951 |
| TTATCCTATT | 0.998 |
| GCATGGGGTC | 1 |
| CGAAGTCCCG | 0.984 |
| CGGCTCAATG | 1.01 |
| TAAGGGCCTC | 1.02 |
| GATAAACGTG | 1 |
| TTCCGTACGC | 1.59 |
| GCGGCGCGAA | 0.962 |
| TCAATTACCA | 1.01 |
